# Test results: ChEMBL document CHEMBL4888484, “Replenishing the malaria drug discovery pipeline: Screening and hit evaluation of the MMV Hit Generation Library 1 (HGL1) against asexual blood stage Plasmodium falciparum ,using a nano luciferase reporter read-out” (2022)
# Several values for one entry are separate records, joined by “and”; a condition that tells them apart may be missing. Identical values can stand only once. About 540 (0.36%) of roughly 150,000 compounds showed an effect of 50% or more. The list shows a part of the results.
# Tested on: Plasmodium falciparum
# Experiment: Primary screen in NF54 nanoGlo assay, in single point, at 2uM, 72h; a lower Z score goes with more inhibition
# Assay type: functional, Erythrocyte
# Settings: timepoint 72 hour
SMILES,% Inhibition [%],Z score,% Inhibition (2 µM)
O=C(NC(=O)C(F)(F)F)Nc1c(Cl)cc(Cl)cc1Cl,3,-0.44,–
Cc1ccc(S(=O)(=O)N2CC[C@H](Oc3cccc4cccnc34)C2)s1,-18,3.51,–
COc1cccc([C@H]2CN(c3ccnc(C)n3)C[C@@H]2C(=O)O)c1OC,-10,1.41,–
COc1ccc([C@@H]2CCC(=O)N2Cc2cc(F)cc(F)c2)cc1,-16,1.95,–
CC1CN(C(=O)Nc2nncs2)CC(C)O1 (configuration not stated),21,-2.79,–
CC(C)n1ccc(CC(=O)Nc2cc(Cl)ccc2NC2CC2)n1,-1,0.1,–
Cc1cc(-c2ccc([C@H](C)N3CCCCC3)cc2)c(=O)[nH]n1,5,-1.04,–
Cc1cccc(Nc2nc(C(=O)N3CCN(c4cccc(Cl)c4Cl)CC3)cs2)n1,24,-2.7,–
CCN1CCC(NC(=O)c2nnn(Cc3ccc(F)cc3F)c2C)CC1,1,-0.15,–
Cc1nccn1CCN(C)C[C@H](C)C(F)(F)F,1,-0.14,–
CC(c1cccnc1)N(C(=O)COCC1CCCO1)C1CC1 (configuration not stated),-6,0.78,–
Cc1n[nH]c(C)c1CNC(=O)[C@]1(Cc2ccccc2)CCCCC(=O)N1,-12,1.35,–
Cn1cnc2cc(C(=O)N3C[C@H]4C[C@H](O)[C@@H](O)C[C@H]4C3)cnc21,-11,1.4,–
Cc1ccc(-c2cc(C(=O)NCC(C)(C)N3CCOCC3)n[nH]2)s1,-6,1.21,–
COCCCNC(=O)c1cn2ccnc(-c3ccccc3)c2n1,33,-3.76,–
C[C@H](F)CCNS(=O)(=O)N1CCCC1,-10,1.2,–
Cc1ccc(NC(=O)c2cccc(CN3CCNC(=O)C3)c2)nn1,-13,1.52,–
Cc1cnc(CCNC(=O)[C@H]2CCN(c3ccccc3Cl)C2)nc1,-7,1.15,–
Cc1nc2cc(NC(=O)c3sccc3C)ccc2o1,-5,0.72,–
c1ccc2c(c1)CC(n1ncnc1COC[C@H]1CCCCO1)C2,-12,1.74,–
N#Cc1ncn(Cc2nnnn2-c2ccc(OC(F)F)cc2)c1C#N,-4,0.44,–

SMILES,% Inhibition [%],Z score,% Inhibition (2 µM)
CCc1ccc(N2CC(C(=O)N3CCOCC3CC(C)=O)CC2=O)cc1 (configuration not stated),-16,1.4,–
CCOc1ncccc1C(=O)Nc1cccnc1-n1cccn1,-13,1.24,–
C[C@@](CO)(CNCc1cn2ccccc2n1)c1ccccc1,-7,1.48,–
O=c1[nH]cnc2[nH]c(-c3ccccc3)nc12,2,-0.22,–
CC1(C)OC(=O)N(CCCCOc2ccccc2)C1=O,-16,2.2,–
CC(C)N(CC(F)(F)F)C(=O)CN1C(=O)C[C@@](C)(C(C)C)C1=O,-2,0.27,–
Cc1cc(C)n(-c2nc3c(c(=O)n2CC(=O)Nc2ccc4c(c2)OCO4)CCC3)n1,8,-1.01,–
Cc1ccc(S(=O)(=O)c2ccc(C(=O)Nc3cccc(C#N)c3)s2)cc1,-16,1.97,–
O=C(Nc1ccccn1)c1cccnc1O,-7,1.27,–
C[C@@H](C1CC1)N(CC(F)(F)F)C(=O)c1ccco1,3,-0.58,–
CCCN(CCC)CCN1C(=O)[C@@H]2C(C(=O)Nc3cccc(OC)c3)[C@@H]3C=C[C@]2(O3)C1C(=O)NC1CCCCC1C (some centres not stated),25,-3.85,–
Cc1cc(=O)c(C(=O)NC[C@H]2CCCO2)c(Cc2cccc(F)c2)n1CCCN1CCOCC1,-13,1.89,–
Cc1ccc(NCc2cn3c(C)cc(C)nc3n2)c(F)c1,-2,0.39,–
CCN(CC)C(=O)[C@@H]1CC2(CN(Cc3ccccc3)C2)CN1C,-3,0.35,–
NC(=O)Cc1nc(C2CCC2)n(Cc2c(F)cccc2Cl)n1,2,-0.32,–
CC(C)(C)OC(=O)[C@@H]1OCCNC1=O,-11,1.39,–
COc1cccc(-c2cnccn2)c1C(=O)N(C(C)C)C(C)C,-14,1.88,–
O=C(Nc1ccc(Cl)cc1)C1CCN(C(=O)c2ccc3c(c2)nnn3C2CCCC2)CC1,-4,0.74,–
Cc1ccc(CC(=O)N[C@H](CO)CC(C)(C)C)cc1O,-8,0.96,–
CS(=O)(=O)N1CCC(OC2CCN(C(=O)Nc3ccccc3)CC2)CC1,3,-0.37,–
CN1CC2(C[C@H]1c1nnc(-c3ccccc3)o1)CN(C(=O)c1cncnc1)C2,-6,0.68,–

SMILES,% Inhibition [%],Z score,% Inhibition (2 µM)
C[C@H](NCc1ccc(-c2ccc(Cl)cc2F)o1)c1ncn[nH]1,-14,1.66,–
CC1=C(C(N)=O)[C@H](c2cccc(Oc3ccccc3)c2)n2ncnc2N1,1,-0.15,–
COc1ccc([C@H](C)NC(=O)NCCc2csc(C)n2)c(OC)c1,2,-0.3,–
Cn1nc(N2CCC[C@H](NS(=O)(=O)Cc3ccccc3)C2)ccc1=O,-14,1.76,–
Cc1nn(C)c2nc(N(C)CCN3CCCCC3=O)sc12,5,-0.72,–
Cc1cc(C)n2c(C(=O)N(C)Cc3c(C)noc3C)nnc2n1,-3,0.61,–
COc1ccc(Cn2nc(C)cc2NC(=O)N2C[C@H]3CC[C@H]2C3)cc1OC,-23,3.41,–
CCc1oc(C(=O)N2CCC[C@@H]2CC)cc1CN(CC)CC,-16,1.78,–
C[C@H](Oc1ccc(F)cc1)C(=O)N1CCCc2cc(S(=O)(=O)N3CCCC3)ccc21,-9,1.18,–
COCCCn1nccc1CNc1nnc(-c2cccc(OC(F)F)c2)o1,-11,1.25,–
CN1CCN([C@H]2CCN(Cc3cc(C(C)(C)C)[nH]n3)C[C@H]2CCC(=O)O)CC1,-4,0.82,–
O=C(c1ccc[nH]1)N1C[C@@H]2OC(=O)N(CCc3cccc(Cl)c3)[C@@H]2C1,-9,1.63,–
C[C@H]1CC(C)(C)CN1C(=O)Cc1ncc[nH]1,-10,1.27,–
Cn1ncc(C(=O)N[C@H]2CCCc3c(F)cc(F)cc32)c1Cl,-10,1.21,–
Cc1cc(C)cc(-n2nnc(-c3nc(-c4cccnc4)no3)c2N)c1,-2,0.31,–
CCCC(O)(CCC)CNC(=O)C(=O)Nc1ccn(Cc2cccnc2)n1,-9,0.98,–
COCCN1CC2(CCC1=O)CCN(Cc1cnc(N(C)C)nc1)CC2,-2,0.28,–
CCn1c(-c2cc(NC(=O)CC3CCCCC3)[nH]n2)cc2ccccc21,0,-0.01,–
Cc1noc(C)c1CN(C)C(=O)NCc1ccccn1,-2,0.37,–
C[C@H](NC(=O)C1CCC(F)(F)CC1)C(N)=O,1,-0.17,–
N#Cc1c[nH]c(C(=O)NC[C@@H](CO)Cc2ccccc2F)c1,-16,1.88,–

SMILES,% Inhibition [%],Z score,% Inhibition (2 µM)
CC(C)(C)OC(=O)NC1CCOC(C2CCN(C(=O)c3cncs3)CC2)C1 (configuration not stated),5,-0.63,–
O=C(NC[C@@H](c1cccs1)N1CCCCC1)c1cccc(Cl)c1,–,–,2% and 8%
Cc1ncsc1CN1CCC2(CC1)C[C@H](c1ccccc1)C(=O)N2C,-13,2.11,–
Cc1cc(C)n(Cc2cc(C(=O)N(C)CCCN3CCOCC3)n[nH]2)n1,-9,0.95,–
Cc1cc(-c2cncc(N)c2)cc2sc(N)nc12,1,-0.13,–
Cc1nnc2n1CCN(CC(=O)N1CCOC3CCCCC31)C2 (configuration not stated),0,0.01,–
CCC(C)(C)C(=O)N1C[C@H](c2nc(-c3ccccc3)no2)C2(CCOCC2)C1,-12,1.95,–
CCC1=NO[C@@H](Cn2cnc(-c3ccccc3)c2-c2ccc(F)cc2OC)C1,-4,0.78,–
COc1ccccc1CC(=O)NCCS(=O)(=O)CCNC(=O)Cc1ccccc1OC,0,-0.01,–
CCN(C)c1nc(N2CCN(c3ccccc3)CC2)nc2c1CN(C(=O)Cc1ccc(OC)cc1)CC2,6,-1.07,–
Cc1cnc(N2CCC[C@H]2c2nc(C(=O)O)cs2)nc1,-12,2.12,–
CCOC(=O)c1ccc(C(F)(F)F)[nH]1,-9,1.06,–
Cc1nc(C(=O)N2CCOCC2)c2n1CCN(S(=O)(=O)c1ccccc1)CC2,-3,0.44,–
Nc1cc(-c2cc(F)cc3cccnc23)nc(N2CCCC2)n1,-1,0.17,–
N#Cc1c(F)cccc1N1CC(CF)C1,-12,1.49,–
C[C@H](Nc1cccc(C(=O)NC2CC2)c1)C(=O)NC1CCCC1,2,-0.4,–
CCn1nc(-c2ccc(OC)cc2F)cc1C(=O)NCCN1CCCCC1,-17,2.1,–
COc1ccc(C(=O)CC(=O)Nc2cc(C(=O)O)cc(C(F)(F)F)c2)cc1,-8,1.13,–
Cc1noc(C)c1CN1C(=O)NC2(CCCCC2)C1=O,-2,0.32,–
Cc1scc(C(=O)N2C[C@@H](C)N(CCO)[C@@H](C)C2)c1C,-11,2.15,–
CC(C)N(Cc1cccc(Cl)c1)C(=O)C[C@@H]1CC[C@H](N)C1,-1,0.15,–
